Results from a compilation of properties of binary mixtures (doi:10.1016/j.jct.2006.07.001).
The densities may have been worked out from excess volumes.

Experiment: xn = mol fraction of the nth substance listed
Details: 101 kPa

CCCC[n+]1ccn(C)c1.F[P-](F)(F)(F)(F)F + OCc1ccccc1
x2 = 0
Details | mass density [kg/m3]
298.15 K | 1370
308.15 K | 1361
313.15 K | 1357

OCc1ccccc1 + CCCC[n+]1ccn(C)c1.F[P-](F)(F)(F)(F)F
mass density [kg/m3]
Details | 298.15 K | 303.15 K | 308.15 K | 313.15 K
x1 = 0.0984 | 1353.6 | 1349.4 | 1345.3 | 1341.1
x1 = 0.1995 | 1335.4 | 1331.3 | 1327.1 | 1323
x1 = 0.2997 | – | 1311.3 | 1307.2 | 1303
x1 = 0.3986 | 1293.3 | 1289.2 | 1285.1 | 1281
x1 = 0.4988 | 1267.8 | 1263.7 | 1259.6 | 1255.5
x1 = 0.5988 | 1238.3 | – | 1230.2 | –
x1 = 0.6999 | 1203 | – | 1194.9 | 1190.8
x1 = 0.8002 | 1160.8 | 1156.8 | 1152.7 | 1148.7
x1 = 0.9011 | 1108.6 | 1104.7 | 1100.7 | 1096.7
x1 = 0.9498 | 1079 | 1075.1 | 1071.2 | –
x1 = 1 | – | 1041 | 1037.1 | 1033.2

O=Cc1ccccc1 + CCCC[n+]1ccn(C)c1.F[P-](F)(F)(F)(F)F
mass density [kg/m3]
Details | 298.15 K | 303.15 K | 308.15 K | 313.15 K
x1 = 0.1004 | 1354.6 | 1350.7 | 1346.5 | 1342.3
x1 = 0.2023 | 1337.8 | 1333.8 | 1329.6 | –
x1 = 0.2989 | – | 1315.5 | 1311.3 | 1307.1
x1 = 0.4017 | 1297.3 | 1293.1 | 1288.9 | 1284.7
x1 = 0.4882 | 1275.7 | 1271.4 | 1267.2 | 1263
x1 = 0.5974 | 1243.6 | 1239.4 | 1235.2 | 1231
x1 = 0.7004 | – | – | 1199 | 1194.7
x1 = 0.7997 | 1164.9 | 1160.7 | 1156.5 | 1152.2
x1 = 0.8966 | 1113.6 | 1109.5 | 1105.1 | –
x1 = 0.9477 | 1081.4 | 1077.3 | 1073 | 1068.6
x1 = 1 | 1043.7 | – | – | –

CCCC[n+]1ccn(C)c1.F[P-](F)(F)(F)(F)F + O=Cc1ccccc1
x2 = 0
Details | mass density [kg/m3]
298.15 K | 1370
303.15 K | 1366
308.15 K | 1361
313.15 K | 1357
